Screen size: about 420,000 compounds; about 64,000 (15%) were called active. The inconclusive results got no clear call from the source; some entries with a clear call stand among them for comparison. The call rests on the fitted dose curve; in most records, active means well fitted inhibition curve with a large enough effect; inconclusive means small, poorly fitted or top-dose-only effect; inactive means flat fitted curve, though single readings scatter. No potency is given beside an inconclusive call; the fits are too rough.
Test: qHTS for Inhibitors of human tyrosyl-DNA phosphodiesterase 1 (TDP1): qHTS in cells in absence of CPT; further: nearly all actives have a fitted effect of over 55% in size
Conditions: DT40 Tdp1-/- hTDP1 cells, no CPT, ATP luminescence, 48 h; activity change, negative = growth inhibition: at 46.2 µM (top of the series) unless noted
Procedure, shortened: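 Compound effects on proliferation are scored in DT40 Tdp1-/-;hTDP1 cells in the absence of CPT. ATP levels (CellTiter-Glo luminescence) are recorded after a ≥48 hr, 37 °C incubation.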
On the % scale 0 is the no-effect control and ±100 the full control effect; potency means the concentration at half of the fitted maximal effect; tags describe the fitted curve by direction and shape.

SMILES | Potency | activity change, negative = growth inhibition
COC(=O)c1c(NC(=O)c2c(OC)cccc2OC)sc2c1CCCC2 | inconclusive [inhibitor, single point] | 
CCN1CCc2nc(SCC(=O)Nc3ccc(OC)cc3)c(C#N)cc2C1 | inconclusive [inhibitor, single point] | 
CN(C)c1ccc(NC(=O)Nc2ccc3c(c2)c(=O)n(C)n3Cc2ccc(Cl)cc2)cc1 | inconclusive [inhibitor, single point] | 
CCn1ccnc1CN(C)Cc1cn(-c2cc(C)ccc2C)nc1-c1ccccc1 | inconclusive [inhibitor, single point] | 
COc1ccccc1NS(=O)(=O)c1cc(NC(=O)Nc2ccccc2)ccc1N1CCCCC1 | active: 18.4 µM | 
COc1ccc(C)cc1S(=O)(=O)N1CCCC(C(=O)N2CCN(c3ccccc3F)CC2)C1 (stereo unspecified) | active: 23.1 µM | 
CC(=O)Nc1ccc(S(=O)(=O)NCc2ccc3c(c2)cc(C)n3C)cc1 | inconclusive [inhibitor, single point] | 
Cc1ccc(S(=O)(=O)N2CCC(=O)N(CCOCc3cccc(C)c3)CC2)cc1 | inconclusive [inhibitor, single point] | 
CC(C(=O)N1CCCCC1)N(C)CC(=O)Nc1ccc(Cl)cc1 (stereo unspecified) | active: 16.4 µM | 
Cc1cccc(N=C2Sc3nc4c(C)c(C)ccc4cc3CN2CCN2CCOCC2)c1 | active: 23.1 µM | 
OCCSc1nc(-c2ccccc2)nc2c1CCC2 | inconclusive [inhibitor, partial curve, poor fit] | 
C=C(C)CNC(=S)N/N=C(\C)c1ccc(-n2ccnc2)cc1 | inconclusive [inhibitor, partial curve] | 
COc1cccc(NC(=O)c2oc3ccc(S(=O)(=O)N4CCOCC4)cc3c2C)c1 | active: 13 µM | 
COc1ccc(C(=O)N/C(=C\c2cn(C)c3ccccc23)C(=O)N2CCN(C)CC2)cc1 | inactive | 
CSCC[C@H](NC(=O)[C@@H]1CSC2c3ccccc3C(=O)N21)C(=O)NCc1ccco1 (stereo partly specified) | inactive | 
Cc1c(C(=O)N2CCC2)oc2ccc(Cl)cc12 | inconclusive [inhibitor, partial curve] | 
CN(C)c1ccc(CNC(=O)CCc2ccc(S(=O)(=O)N3CCCCCC3)cc2)cc1 | active: 14.6 µM | 
Clc1ccc(COc2cccc(CNCc3ccncc3)c2)cc1 | active: 18.4 µM | 
CC(=O)c1cccc(Nc2ncnc3c2cnn3-c2cccc(Cl)c2)c1 | inconclusive [inhibitor, partial curve, poor fit] | 
O=C(Nc1sc2c(c1C(=O)NC1CC1)CCCCCC2)c1ccco1 | inconclusive [inhibitor, partial curve] | 
CC(=O)Nc1ccc(C2=NN(C)C(=NCc3ccccc3)SC2)cc1 | inconclusive [inhibitor, single point] | 
O=C(c1cc(-c2cccnc2)nc2ccccc12)N1CCN(S(=O)(=O)c2ccc(Cl)s2)CC1 | inconclusive [inhibitor, partial curve, poor fit] | 
COCCn1c(SCC(=O)N2CCc3ccccc3C2)nc2ccccc2c1=O | inconclusive [inhibitor, single point] | 
CN1CCc2c(sc(NC(=O)c3ccc(S(=O)(=O)N4CCCC4)cc3)c2C(N)=O)C1 | active: 16.4 µM | 

SMILES | Potency | activity change, negative = growth inhibition
Cc1cccc2cc(CN(CC3CCCO3)C(=O)C3CC3)c(N(C)C)nc12 (stereo unspecified) | inactive | 
CC(=O)Nc1c(C(=O)Nc2ccccc2F)oc2ccccc12 |  | inconclusive: -36.9% [inhibitor]
C#CCN(C[C@@H]1[C@@H](OC(=O)NCCCCCC)[C@@H](OC(=O)NCCCCCC)Cn2c(=O)n(CCCCCC)c(=O)n21)S(=O)(=O)c1ccc(C)cc1 | inconclusive [inhibitor, single point] | 
[O-]/C(=C(\C(=S)Nc1ccc(SC(F)F)cc1)[n+]1cccc(CO)c1)c1ccc(Cl)s1 | inconclusive [inhibitor, single point] | 
CCc1ccc(Nc2nc3c(S(=O)(=O)c4cccc(Cl)c4)nnn3c3ccsc23)cc1 | active: 4.61 µM | 
Cc1cc(Cl)c2oc(C(=O)N(C)CC3CCOCC3)c(C)c2c1 | inconclusive [inhibitor, partial curve] | 
CC(C)CNC(=O)NC1C(NC(=O)NCC(C)C)N(C)C(=O)N1C (stereo unspecified) | inactive | 
O=c1c2ccccc2c(/C=N/c2n[nH]c(CCCO)n2)c(O)n1-c1ccccc1Cl | inactive | 
Cc1ccc(N2C3=C(C(=O)CC(C)(C)C3)C(c3cn(C)nc3C)C3=C2CC(C)(C)CC3=O)cc1 | active: 13 µM | 
C=CC[C@@H](CC(=O)OC(C)(C)C)C(=O)OC[C@H]1CCCN1C(=O)[C@@H](CC=C)CC(=O)N[C@H](CO)Cc1ccccc1 | inconclusive [inhibitor, single point] | 
N#Cc1ccc(/C=N/NC(=O)CCc2ccc(S(=O)(=O)N3CCOCC3)cc2)cc1 | inconclusive [inhibitor, single point] | 
COc1ccc(CCN2C(=O)CC(Nc3ccc(N4CCOCC4)cc3)C2=O)cc1OC (stereo unspecified) | active: 2.31 µM | 
COc1ccc(C(=O)NCCNc2ccc([N+](=O)[O-])cc2)cc1OC | inconclusive [inhibitor, single point] | 
Cc1cc(-n2c(SCc3ccccc3F)nc3n[nH]c(C)c3c2=N)ccc1Cl | inconclusive [inhibitor, single point] | 
O=C(NCCn1cccn1)C1CCC(=O)N(CCc2ccc(Cl)cc2)C1 (stereo unspecified) | inactive | 
O=S(=O)(NCc1cccs1)c1ccc(Cl)s1 | inactive | 
COc1cc(Br)cc(/C=C/c2ccc3cccc(O)c3n2)c1O | active: 9.2 µM | 
Cc1ccc(C(=O)OCC(=O)N2c3ccccc3NC(=O)C2(C)C)cc1S(=O)(=O)N1CCCCC1 | active: 14.6 µM | 
O=C(c1ccccc1)c1ccc(OCCCCN2CCCCC2)cc1 | inactive | 
COc1ccc(-n2nc3c(c2NC(=O)COc2ccccc2OC)CS(=O)(=O)C3)cc1 | inactive | 
O=C(c1[nH]ncc1[N+](=O)[O-])N1CCOCC1 | inconclusive [inhibitor, single point] | 
CCCCCCCC(=O)OC(CN1CCCCCC1)CN1CCCC1=O (stereo unspecified) | inactive | 
CCCCOc1ccc(/C=N/NC(=S)Nc2cccc(C)c2C)cc1 | inconclusive [inhibitor, single point] | 
COc1cc(/C=N\NC(=O)OC(C)(C)C)ccc1OC(=O)c1ccco1 | inactive | 

SMILES | Potency | activity change, negative = growth inhibition
O=C1CCCC(O)=C1Sc1cc(Cl)c(Cl)cc1Cl | inconclusive [inhibitor, partial curve] | 
COc1ccc(NC(=O)CS(=O)(=O)c2cn(CC(=O)N(C(C)C)C(C)C)c3ccccc23)c(OC)c1 | inactive | 
Cc1ccc(-c2cc(C(=O)O)c3sc(N4CCCCC4)nc3n2)cc1 | inactive | 
COc1ccc(-n2cc(C(=O)Nc3ccccc3C#N)c3ccccc3c2=O)cc1 | inconclusive [inhibitor, single point] | 
CS(=O)(=O)N1CCN(c2ccccc2NC(=O)CSc2ccc(Cl)cc2)CC1 | inconclusive [inhibitor, partial curve, poor fit] | 
Cc1cc(Br)ccc1OCCNCc1ccccc1 | inconclusive [inhibitor, partial curve] | 
O=[N+]([O-])c1ccc(NC(=S)NCCc2ccc(F)cc2)cc1 | active: 16.4 µM | 
CCN1C(=O)[C@H]2[C@@H](c3ccc(C)cc3)N[C@]3(CCCN(Cc4ccc(F)cc4)C3=O)[C@H]2C1=O | inconclusive [inhibitor, single point] | 
Cc1cc(NC(=O)CCc2ccccc2)c([N+](=O)[O-])cc1C | inactive | 
CC(=O)Nc1ccc(S(=O)(=O)N2CCN(C34CC5CC(CC(C5)C3)C4)CC2)cc1 | inconclusive [inhibitor, single point] | 
CCCn1c(SCC(=O)N2CCc3ccccc3C2)nc2c1c(=O)n(C)c(=O)n2C | inconclusive [inhibitor, partial curve] | 
O=C(CCn1c(=S)oc2ccccc21)Nc1cccc(O)c1 | inactive | 
CCCn1cnnc1CNC(=O)[C@H]1O[C@@H](n2ccc(N)nc2=O)[C@H](O)[C@@H]1O | inactive | 
CCN1CCN(C(=S)Nc2ccccc2Cl)CC1 | inconclusive [inhibitor, single point] | 
CCc1ccc(CN2CCC(C(=O)Nc3ccc(Oc4ccccc4)nc3)CC2)o1 | active: 23.1 µM | 
Cc1cc(O)c(C)c(O)c1/C=N/NC(=O)c1cccnc1 | inconclusive [inhibitor, single point] | 
COc1ccccc1NC(=O)C(C)OC(=O)c1cc2ccccc2[nH]1 (stereo unspecified) | inconclusive [inhibitor, single point] | 
COC(C/C=C/[C@@H](O)[C@@H](C)OCc1ccccc1)OC | inactive | 
CCCN1Cc2cccc(C(N)=O)c2C1=O | inconclusive [inhibitor, partial curve] | 
O=C(O)CCCN1C(=O)C2C3c4ccccc4C(c4ccccc43)[C@@H]2C1=O (stereo partly specified) | inactive | 
Cc1nc(SCCOc2ccc(Cl)cc2)[nH]c(=O)c1Cc1ccccc1 | inconclusive [inhibitor, single point] | 
COc1cccc(-n2cc(C(=O)Nc3ccccc3C(N)=O)c3ccccc3c2=O)c1 | active: 10.3 µM | 
Cc1ccc(NC(=O)CN2C(=O)COc3ccc(S(=O)(=O)N4CCOCC4)cc32)c(Cl)c1 |  | inconclusive: -33.2% [inhibitor]

Reference: PubChem BioAssay AID686978 (National Center for Advancing Translational Sciences (NCATS), 2013)
